Many values rest on one well or one pass, so single values are uncertain.
Assays:
CHO-K1 [1] = experiment: micronucleus frequency (% of nucleated events); higher = more micronuclei (genotoxic)
CHO-K1 [2] = experiment: hypodiploid nuclei frequency (% of nucleated events); higher = more hypodiploid events (aneugenic)
Method: (§1)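 Flow-cytometric in vitro micronucleus assay (Litron MicroFlow) in CHO-K1 cells in 96-well plates, 19 concentrations (4.5-200 µM, n=1 per concentration). Without S9, cells were exposed for 24 h and sampled at 48 h. With Aroclor 1254-induced rat liver S9, cells were exposed for 3-4 h and sampled at 27-28 h. Read-outs are %MN and %hypodiploid nuclei relative to nucleated events, and relative survival as the nuclei-to-bead ratio versus the 1% DMSO vehicle control (x100).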

CHO-K1 [3] = experiment: relative survival (nuclei to bead ratio vs DMSO control) (% of vehicle control); higher = more surviving cells
Method: as §1
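Throughout, for hypodiploid nuclei frequency (% of nucleated events): hypodiploid nuclei gated on a flow cytometer with 488 nm excitation after SYTOX Green staining, cultures at 37 °C, positive controls vinblastine without S9 and cyclophosphamide with S9.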
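Throughout, for micronucleus frequency (% of nucleated events): cells lysed with nuclei stained by SYTOX Green, then micronucleus-gated events counted against nucleated events by flow cytometry with 488 nm excitation.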
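Throughout, for relative survival (nuclei to bead ratio vs DMSO control): Lysed-cell nuclei stained with SYTOX Green and counted against counting beads by flow cytometry at 488 nm excitation, with vinblastine (no S9) and cyclophosphamide (plus S9) as positive controls.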

CCOCN(C(=O)CCl)c1c(C)cccc1CC [Acetochlor]
Details | hypodiploid nuclei frequency, CHO-K1 [2] [%] | micronucleus frequency, CHO-K1 [1] [%] | relative survival, CHO-K1 [3]
concentration: 4.5 (µM), S9 metabolic activation: with S9, exposure time: 3-4 hours | 0.1 | 1.04 | 107
concentration: 4.5 (µM), S9 metabolic activation: without S9, exposure time: 24 hours | 0.62 | 1.74 | 96
concentration: 5.63 (µM), S9 metabolic activation: with S9, exposure time: 3-4 hours | 0.32 | 1.16 | 90.6
concentration: 5.63 (µM), S9 metabolic activation: without S9, exposure time: 24 hours | 0.82 | 2.22 | 117
concentration: 7.04 (µM), S9 metabolic activation: with S9, exposure time: 3-4 hours | 0.22 | 1.38 | 81
concentration: 7.04 (µM), S9 metabolic activation: without S9, exposure time: 24 hours | 0.82 | 2.26 | 101
concentration: 8.8 (µM), S9 metabolic activation: with S9, exposure time: 3-4 hours | 0.22 | 1.42 | 87.9
concentration: 8.8 (µM), S9 metabolic activation: without S9, exposure time: 24 hours | 0.84 | 2.58 | 110
concentration: 11 (µM), S9 metabolic activation: with S9, exposure time: 3-4 hours | 0.18 | 1.8 | 82.5
concentration: 11 (µM), S9 metabolic activation: without S9, exposure time: 24 hours | 0.74 | 1.76 | 92.7
concentration: 13.7 (µM), S9 metabolic activation: with S9, exposure time: 3-4 hours | 0.26 | 1.76 | 94.7
concentration: 13.7 (µM), S9 metabolic activation: without S9, exposure time: 24 hours | 0.52 | 1.98 | 91.1
concentration: 17.2 (µM), S9 metabolic activation: with S9, exposure time: 3-4 hours | 0.24 | 1.82 | 94.2
concentration: 17.2 (µM), S9 metabolic activation: without S9, exposure time: 24 hours | 0.7 | 2.56 | 108
concentration: 21.5 (µM), S9 metabolic activation: with S9, exposure time: 3-4 hours | 0.24 | 1.54 | 89.7
concentration: 21.5 (µM), S9 metabolic activation: without S9, exposure time: 24 hours | 0.74 | 2.04 | 97.4
concentration: 26.8 (µM), S9 metabolic activation: with S9, exposure time: 3-4 hours | 0.36 | 1.2 | 108
concentration: 26.8 (µM), S9 metabolic activation: without S9, exposure time: 24 hours | 0.84 | 2.46 | 112
concentration: 33.6 (µM), S9 metabolic activation: with S9, exposure time: 3-4 hours | 0.28 | 1.08 | 109
concentration: 33.6 (µM), S9 metabolic activation: without S9, exposure time: 24 hours | 0.92 | 2.78 | 96.9
concentration: 41.9 (µM), S9 metabolic activation: with S9, exposure time: 3-4 hours | 0.38 | 2.38 | 123
concentration: 41.9 (µM), S9 metabolic activation: without S9, exposure time: 24 hours | 0.72 | 2.34 | 108
concentration: 52.4 (µM), S9 metabolic activation: with S9, exposure time: 3-4 hours | 0.28 | 1.54 | 94.7
concentration: 52.4 (µM), S9 metabolic activation: without S9, exposure time: 24 hours | 0.76 | 2.96 | 88.5
concentration: 65.5 (µM), S9 metabolic activation: with S9, exposure time: 3-4 hours | 0.32 | 1.76 | 77.3
concentration: 65.5 (µM), S9 metabolic activation: without S9, exposure time: 24 hours | 0.62 | 1.94 | 101
concentration: 81.9 (µM), S9 metabolic activation: with S9, exposure time: 3-4 hours | 0.22 | 1.58 | 82
concentration: 81.9 (µM), S9 metabolic activation: without S9, exposure time: 24 hours | 0.68 | 3.84 | 102
concentration: 102 (µM), S9 metabolic activation: with S9, exposure time: 3-4 hours | 0.2 | 2.56 | 69.5
concentration: 102 (µM), S9 metabolic activation: without S9, exposure time: 24 hours | 1.34 | 2.82 | 76.2
concentration: 128 (µM), S9 metabolic activation: with S9, exposure time: 3-4 hours | 0.2 | 3.15 | 44.2
concentration: 128 (µM), S9 metabolic activation: without S9, exposure time: 24 hours | 1.24 | 3.76 | 67.3
concentration: 160 (µM), S9 metabolic activation: with S9, exposure time: 3-4 hours | 0.28 | 4.25 | 41.5
concentration: 160 (µM), S9 metabolic activation: without S9, exposure time: 24 hours | – | – | 21.7
concentration: 200 (µM), S9 metabolic activation: with S9, exposure time: 3-4 hours | – | – | 24.6
concentration: 200 (µM), S9 metabolic activation: without S9, exposure time: 24 hours | – | – | 0.25

c1ccc2cc3ccccc3cc2c1 [Anthracene]
Details | hypodiploid nuclei frequency, CHO-K1 [2] [%] | micronucleus frequency, CHO-K1 [1] [%] | relative survival, CHO-K1 [3]
concentration: 4.5 (µM), S9 metabolic activation: with S9, exposure time: 3-4 hours | 0.28 | 2.12 | 96.2
concentration: 4.5 (µM), S9 metabolic activation: without S9, exposure time: 24 hours | 0.66 | 1.28 | 129
concentration: 5.63 (µM), S9 metabolic activation: with S9, exposure time: 3-4 hours | 0.26 | 1.92 | 96.2
concentration: 5.63 (µM), S9 metabolic activation: without S9, exposure time: 24 hours | 0.78 | 1.04 | 117
concentration: 7.04 (µM), S9 metabolic activation: with S9, exposure time: 3-4 hours | 0.26 | 1.34 | 92.8
concentration: 7.04 (µM), S9 metabolic activation: without S9, exposure time: 24 hours | 0.66 | 0.96 | 120
concentration: 8.8 (µM), S9 metabolic activation: with S9, exposure time: 3-4 hours | 0.16 | 0.9 | 69.3
concentration: 8.8 (µM), S9 metabolic activation: without S9, exposure time: 24 hours | 0.36 | 1.28 | 123
concentration: 11 (µM), S9 metabolic activation: with S9, exposure time: 3-4 hours | 0.18 | 1.3 | 93.4
concentration: 11 (µM), S9 metabolic activation: without S9, exposure time: 24 hours | 0.62 | 1.2 | 133
concentration: 13.7 (µM), S9 metabolic activation: with S9, exposure time: 3-4 hours | 0.14 | 1.14 | 102
concentration: 13.7 (µM), S9 metabolic activation: without S9, exposure time: 24 hours | 0.4 | 1.36 | 124
concentration: 17.2 (µM), S9 metabolic activation: with S9, exposure time: 3-4 hours | 0.16 | 2.32 | 101
concentration: 17.2 (µM), S9 metabolic activation: without S9, exposure time: 24 hours | 0.46 | 1.46 | 116
concentration: 21.5 (µM), S9 metabolic activation: with S9, exposure time: 3-4 hours | 0.26 | 2.46 | 88.9
concentration: 21.5 (µM), S9 metabolic activation: without S9, exposure time: 24 hours | 0.36 | 1.38 | 87.7
concentration: 26.8 (µM), S9 metabolic activation: with S9, exposure time: 3-4 hours | 0.34 | 1.94 | 88.4
concentration: 26.8 (µM), S9 metabolic activation: without S9, exposure time: 24 hours | 0.52 | 1 | 96.2
concentration: 33.6 (µM), S9 metabolic activation: with S9, exposure time: 3-4 hours | 0.14 | 1.74 | 92
concentration: 33.6 (µM), S9 metabolic activation: without S9, exposure time: 24 hours | 0.62 | 1.24 | 111
concentration: 41.9 (µM), S9 metabolic activation: with S9, exposure time: 3-4 hours | 0.2 | 1.54 | 92
concentration: 41.9 (µM), S9 metabolic activation: without S9, exposure time: 24 hours | 0.9 | 1.42 | 85
concentration: 52.4 (µM), S9 metabolic activation: with S9, exposure time: 3-4 hours | 0.22 | 2.18 | 82.7
concentration: 52.4 (µM), S9 metabolic activation: without S9, exposure time: 24 hours | 0.62 | 1.46 | 93.1
concentration: 65.5 (µM), S9 metabolic activation: with S9, exposure time: 3-4 hours | 0.18 | 1.6 | 72.9
concentration: 65.5 (µM), S9 metabolic activation: without S9, exposure time: 24 hours | 0.96 | 1.66 | 88.3
concentration: 81.9 (µM), S9 metabolic activation: with S9, exposure time: 3-4 hours | 0.08 | 1.92 | 63.6
concentration: 81.9 (µM), S9 metabolic activation: without S9, exposure time: 24 hours | 1.12 | 1.64 | 85.7
concentration: 102 (µM), S9 metabolic activation: with S9, exposure time: 3-4 hours | 0.32 | 1.78 | 63.4
concentration: 102 (µM), S9 metabolic activation: without S9, exposure time: 24 hours | 1.62 | 2.52 | 83.8
concentration: 128 (µM), S9 metabolic activation: with S9, exposure time: 3-4 hours | 0.29 | 1.64 | 60.9
concentration: 128 (µM), S9 metabolic activation: without S9, exposure time: 24 hours | 0.86 | 2.24 | 66.5
concentration: 160 (µM), S9 metabolic activation: with S9, exposure time: 3-4 hours | 0.24 | 1.94 | 69.3
concentration: 160 (µM), S9 metabolic activation: without S9, exposure time: 24 hours | 0.84 | 3.28 | 44.4
concentration: 200 (µM), S9 metabolic activation: with S9, exposure time: 3-4 hours | 0.26 | 1.28 | 70
concentration: 200 (µM), S9 metabolic activation: without S9, exposure time: 24 hours | – | – | 27.6

Reference: the supplement of paper PMC9151546
